Data on 45 compounds can be found in paper PMC4336329 (PLoS ONE, 2015).

Out of some 310,000 compounds screened, about 14,000 (4.5%) showed an effect of 50% or more. Effects have a minus sign here. The list shows a part of the results.
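Also: peak tail current of the secondary pulse compared with the same well before compound.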

For this assay, the target named is human ether-à-go-go-related gene (hERG) potassium channel (human, UniProt Q12809). The experiment in a line: primary screen, population patch clamp on CHO cells stably expressing hERG.
human ether-à-go-go-related gene (hERG) potassium channel, sequence (Q12809 whole entry, looked up): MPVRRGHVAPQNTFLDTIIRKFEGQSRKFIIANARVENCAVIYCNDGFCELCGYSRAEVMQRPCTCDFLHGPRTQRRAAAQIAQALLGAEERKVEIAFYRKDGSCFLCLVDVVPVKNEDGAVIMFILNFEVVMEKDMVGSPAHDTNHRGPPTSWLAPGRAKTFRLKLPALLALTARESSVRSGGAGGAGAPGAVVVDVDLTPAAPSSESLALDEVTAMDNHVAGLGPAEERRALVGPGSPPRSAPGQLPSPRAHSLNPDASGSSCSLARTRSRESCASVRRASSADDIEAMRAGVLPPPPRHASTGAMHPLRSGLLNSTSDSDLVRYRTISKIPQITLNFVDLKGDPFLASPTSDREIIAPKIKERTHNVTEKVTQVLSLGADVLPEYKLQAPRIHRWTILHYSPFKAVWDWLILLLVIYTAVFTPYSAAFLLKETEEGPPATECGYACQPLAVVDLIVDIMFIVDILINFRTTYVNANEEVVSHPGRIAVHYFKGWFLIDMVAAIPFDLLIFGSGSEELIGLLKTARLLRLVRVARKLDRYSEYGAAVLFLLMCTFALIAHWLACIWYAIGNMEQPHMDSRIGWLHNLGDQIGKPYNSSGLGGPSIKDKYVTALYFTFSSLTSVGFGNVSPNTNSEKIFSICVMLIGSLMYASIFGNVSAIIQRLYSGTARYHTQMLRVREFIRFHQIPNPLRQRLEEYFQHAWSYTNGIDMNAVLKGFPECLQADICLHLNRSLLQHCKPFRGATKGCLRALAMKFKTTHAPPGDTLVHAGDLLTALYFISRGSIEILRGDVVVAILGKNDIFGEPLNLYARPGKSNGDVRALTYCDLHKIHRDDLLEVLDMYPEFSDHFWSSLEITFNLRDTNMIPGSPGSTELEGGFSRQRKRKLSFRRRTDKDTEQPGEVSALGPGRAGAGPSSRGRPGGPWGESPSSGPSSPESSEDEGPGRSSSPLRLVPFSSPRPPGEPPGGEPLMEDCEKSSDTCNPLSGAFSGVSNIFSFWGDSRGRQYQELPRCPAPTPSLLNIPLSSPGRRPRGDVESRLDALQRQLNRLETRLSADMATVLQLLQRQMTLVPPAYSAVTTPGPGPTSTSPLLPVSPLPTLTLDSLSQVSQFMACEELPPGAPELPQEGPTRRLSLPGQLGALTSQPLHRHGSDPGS
For the compound `Cc1cc(Cl)ccc1Oc1nc(-c2ccccc2)ncc1S(C)(=O)=O`, the “hERG current change (%, negative = inhibition) at 10uM” value worked out at 9.48%. Then `O=C1c2ccccc2C(=O)N1CCc1nc2ccccc2c(=O)n1-c1ccccn1`, with 11.6%. Then `O=C(Nc1ccc(-c2nc3cccnc3s2)cc1)C1CCCO1` (stereo not drawn), with 8.69%; and `C=CCn1c(O)c(C(C)=Nc2ccc(C(=O)OCC)cc2)c(=O)[nH]c1=O`, with -13.8%; and `COc1cc(C(=O)Sc2ccc(C)cc2)cc(OC)c1OC`, with 5.26%. Then `O=C(c1cnsn1)N1CCC(CO)(Cc2cccc(F)c2)CC1`, with 10.8%. For the compound `O=C(CCC(=O)Nc1ccccc1)NNC(=O)c1cccs1`, the “hERG current change (%, negative = inhibition) at 10uM” value was 13.2%.

On to `O=C(O)C1C2c3ccccc3C(c3ccccc32)C1C(=O)Nc1ccccc1` (stereo not drawn), for which the “hERG current change (%, negative = inhibition) at 10uM” value was 6.76%. As for `O=C(c1ccc(Br)o1)N1CCN(c2ccccn2)CC1`, the “hERG current change (%, negative = inhibition) at 10uM” value is recorded as -19.3%. Then `Cc1ccc(OCc2ccc(C(=O)N3CCOCC3)cc2)cc1C`, with -12.7%; and `CC(C)CN1C(=O)c2ccc(C(=O)NCc3ccccn3)cc2C1=O`, with -1.96%. Turning to `CCCCNS(=O)(=O)c1ccc2nc(-c3cccnc3)cc(C(=O)NC3CCCC3)c2c1`, the “hERG current change (%, negative = inhibition) at 10uM” value is 13.1%. Then `O=C(CCc1ccc(S(=O)(=O)N2CCOCC2)cc1)N1CCCC1`, with 4.91%. As to `CSc1ccccc1NC(=O)c1ccccc1C`, the “hERG current change (%, negative = inhibition) at 10uM” value is given as -14.5%. With `Cc1nn(C)c(C)c1NC(=O)CSc1nc(C2CC2)nc2c1cnn2-c1ccccc1`, the “hERG current change (%, negative = inhibition) at 10uM” value came out at 1.91%. Then `O=C(Cn1ccnc1)c1ccc(O)c(O)c1`, with 7.66%; and `Cc1onc(-c2c(Cl)cccc2Cl)c1/C(N)=N/OC(=O)N(C)C`, with 9.17%; and `COc1cccc(OCCNc2ccc([N+](=O)[O-])cn2)c1`, with -31.5%. Then `O=C(Nc1nnc(SCC(=O)N2CCCc3ccccc32)s1)c1ccc2ccccc2c1`, with 8.28%. Then `COC(=O)c1cc(Br)c(=O)n(-c2cc(C)on2)c1`, with 15.4%; and `N/C(=N\OC(=O)CSc1ccccc1)c1cccc([N+](=O)[O-])c1`, with -8.22%.

With `Fc1ccc(CSc2nnc(-c3ccco3)o2)cc1`, the “hERG current change (%, negative = inhibition) at 10uM” value is -6.74%. Turning to `C=CCNC(=O)C1CCC(C(=O)NCC=C)CC1` (stereo not drawn), the “hERG current change (%, negative = inhibition) at 10uM” value worked out at 3.04%. Then `O=C(CSc1ncccc1C(=O)O)c1ccc2ccccc2c1`, with 3.37%. Then `CC(=O)Nc1ccc(S(=O)(=O)NCCCN2CCOCC2)cc1`, with 16%; and `CCCCn1c(N)c(N(CC(C)C)C(=O)c2cc(C)nc3ccccc23)c(=O)[nH]c1=O`, with 9.03%; and `O=C(CCC(=O)N1CCN(Cc2ccc(F)cc2)CC1)Nc1nnc(C2CCCCC2)s1`, with 6.92%. Then `Cc1ccc(CNC(=O)C(Cc2ccccc2)NS(=O)(=O)c2ccc3c(c2)CCC(=O)N3)cc1` (stereo not drawn), with -23.3%; and `CC(C)CCn1c(=O)c2c(nc3n2CCCN3Cc2ccccc2)n(C)c1=O`, with -37.7%; and `CCOC(=O)Cn1nc(-c2ccccc2)c2ccccc2c1=O`, with -8.08%. For the compound `CCCCN(CC)CCCNC(=O)CC1Nc2ccccc2NC1=O` (stereo not drawn), the “hERG current change (%, negative = inhibition) at 10uM” value came to 1.98%.

With `Cc1ccccc1NC(=S)N(C)Cc1cccs1`, the “hERG current change (%, negative = inhibition) at 10uM” value was -7.89%. For the compound `Cc1ccc(OCCCN2C(=O)C(=O)c3cccc(C)c32)cc1`, the “hERG current change (%, negative = inhibition) at 10uM” value is given as 13.1%. Then `CCN(CCn1cccn1)C(=O)CCc1nnc(CCc2ccccc2OC)o1`, with 5.73%. Then `CC(CCc1ccccc1)NC(=O)COC(=O)c1cc(NS(=O)(=O)c2ccc(Cl)c([N+](=O)[O-])c2)ccc1O` (stereo not drawn), with 14.1%. Then `CC(=O)c1cc(C#N)c(SCC(=O)O)nc1C`, with 2.02%; and `O=C(COc1ccccc1Cl)Nc1ccc(Cl)cn1`, with 20%. Regarding `Cn1c(=O)c2ccccc2n(Cc2ccccc2Cl)c1=O`, the “hERG current change (%, negative = inhibition) at 10uM” value was found to be 0.661%. Then `CCc1ccc(C(C(=O)NC2CCCC2)N(C(=O)/C=C/C(=O)Nc2cc(C)on2)c2ccccc2C)cc1` (stereo not drawn), with 9.58%. Turning to `CC1CCCC(NC(=O)c2ccc(F)c(S(=O)(=O)N3CCOCC3)c2)C1C` (stereo not drawn), the “hERG current change (%, negative = inhibition) at 10uM” value worked out at 4.67%.

With `CC1(NC(=O)CCNC(=O)c2ccc(C(C)(C)C)cc2)CCS(=O)(=O)C1` (stereo not drawn), the “hERG current change (%, negative = inhibition) at 10uM” value is reported as 4.38%. Then `CC(Oc1ccc(Cl)cc1)c1ccnc(N)n1` (stereo not drawn), with 14.4%; and `COc1cc2c(cc1OC)CN(C(=O)Cc1c(F)cccc1Cl)CC2`, with 11.1%; and `COc1ccccc1-c1nc2n(n1)C(c1cccs1)C(C(=O)Nc1cccnc1)=C(C)N2` (stereo not drawn), with -31.7%. Then `CCn1cc(C(=O)NCC2CCCO2)c(=O)c2cc(S(=O)(=O)N3CCCCC3)ccc21` (stereo not drawn), with -34%.
